Measurements taken from the supplement of paper PMC8728848.
The other results are listed elsewhere or left out.

Key:
Test in all cases: glycan array binding signal (z-score within array); higher = stronger binding
Details in all cases: glycan notation: IUPAC condensed, linker removed
[1] = target: Glc(b1-3)Glc(b1-3)Glc(b1-3)Glc(b1-3)Glc(b1-3)Glc(b1-3)Glc(b1-3)[Glc(b1-6)]Glc(b1-3)Glc
Method in brief: (§1)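 The Consortium for Functional Glycomics database supplied 3228 glycan arrays, of which those lacking an available protein sequence were dropped. The binding signal, a within-array Z-score, was averaged across arrays of the same protein sequence and across linkers. Negative scores can be read as non-binding.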

[2] = target: Glc(b1-3)Glc(b1-3)Glc(b1-3)Glc(b1-3)Glc(b1-3)Glc(b1-3)[Glc(b1-6)]Glc(b1-3)Glc(b1-3)Glc
Method in brief: as §1

[3] = target: Glc(b1-3)Glc(b1-3)Glc(b1-3)Glc(b1-3)[Glc(b1-6)]Glc(b1-3)Glc(b1-3)Glc(b1-3)Glc(b1-3)Glc
Method in brief: as §1

[4] = target: Glc(b1-3)Glc(b1-3)Glc(b1-3)[Glc(b1-6)]Glc(b1-3)Glc(b1-3)Glc(b1-3)Glc(b1-3)[Glc(b1-6)]Glc(b1-3)Glc
Method in brief: as §1

[5] = target: Glc(b1-3)Glc(b1-3)[Glc(b1-6)]Glc(b1-3)Glc(b1-3)Glc(b1-3)Glc(b1-3)Glc(b1-3)Glc(b1-3)Glc
Method in brief: as §1

Glc(b1-3)Glc(b1-4)Glc = target: Glc(b1-3)Glc(b1-4)Glc
Method in brief: as §1

[6] = target: Glc(b1-3)Glc(b1-4)Glc(b1-4)Glc
Method in brief: as §1

[7] = target: Glc(b1-3)Glc(b1-4)Glc(b1-6)Glc(b1-4)Glc
Method in brief: as §1

[8] = target: Glc(b1-3)[Glc(b1-6)]Glc(a1-3)Glc(b1-3)[Glc(b1-6)]Glc
Method in brief: as §1

[9] = target: Glc(b1-3)[Glc(b1-6)]Glc(b1-3)Glc(b1-3)Glc(b1-3)Glc(b1-3)Glc(b1-3)Glc(b1-3)Glc
Method in brief: as §1

Glc(b1-4)Glc = target: Glc(b1-4)Glc
Method in brief: as §1

Glc(b1-4)Glc(b1-3)Glc = target: Glc(b1-4)Glc(b1-3)Glc
Method in brief: as §1

[10] = target: Glc(b1-4)Glc(b1-3)Glc(b1-4)Glc
Method in brief: as §1

Glc(b1-4)Glc(b1-4)Glc = target: Glc(b1-4)Glc(b1-4)Glc
Method in brief: as §1

[11] = target: Glc(b1-4)Glc(b1-4)Glc(b1-3)Glc
Method in brief: as §1

[12] = target: Glc(b1-4)Glc(b1-4)Glc(b1-3)Glc(b1-4)Glc(b1-4)Glc(b1-3)Glc
Method in brief: as §1

[13] = target: Glc(b1-4)Glc(b1-4)Glc(b1-4)Glc
Method in brief: as §1

[14] = target: Glc(b1-4)Glc(b1-4)Glc(b1-4)Glc(b1-3)Glc
Method in brief: as §1

[15] = target: Glc(b1-4)Glc(b1-4)Glc(b1-4)Glc(b1-4)Glc
Method in brief: as §1

[16] = target: Glc(b1-4)Glc(b1-4)Glc(b1-4)Glc(b1-4)Glc(b1-4)Glc
Method in brief: as §1

[17] = target: Glc(b1-4)Glc(b1-4)Glc(b1-4)Glc(b1-4)Glc(b1-4)Glc(b1-4)Glc
Method in brief: as §1

[18] = target: Glc(b1-4)Glc(b1-4)Glc(b1-4)Glc(b1-4)Glc(b1-4)Glc(b1-4)Glc(b1-4)Glc
Method in brief: as §1

[19] = target: Glc(b1-4)Glc(b1-4)Glc(b1-4)Glc(b1-4)Glc(b1-4)Glc(b1-4)Glc(b1-4)Glc(b1-4)Glc
Method in brief: as §1

[20] = target: Glc(b1-4)Glc(b1-4)Glc(b1-4)Glc(b1-4)Glc(b1-4)Glc(b1-4)Glc(b1-4)Glc(b1-4)Glc(b1-4)Glc
Method in brief: as §1

[21] = target: Glc(b1-4)Glc(b1-4)Glc(b1-4)Glc(b1-4)Glc(b1-4)Glc(b1-4)Glc(b1-4)Glc(b1-4)Glc(b1-4)Glc(b1-4)Glc
Method in brief: as §1

[22] = target: Glc(b1-4)Glc(b1-4)Glc(b1-4)Glc(b1-4)Glc(b1-4)Glc(b1-4)Glc(b1-4)Glc(b1-4)Glc(b1-4)Glc(b1-4)Glc(b1-4)Glc
Method in brief: as §1

[23] = target: Glc(b1-4)Glc(b1-4)Glc(b1-4)Glc(b1-4)Glc(b1-4)Glc(b1-4)Glc(b1-4)Glc(b1-4)Glc(b1-4)Glc(b1-4)Glc(b1-4)Glc(b1-4)Glc
Method in brief: as §1

Glc(b1-6)Glc = target: Glc(b1-6)Glc
Method in brief: as §1

Glc(b1-6)Glc(b1-6)Glc = target: Glc(b1-6)Glc(b1-6)Glc
Method in brief: as §1

[24] = target: Glc(b1-6)Glc(b1-6)Glc(b1-6)Glc
Method in brief: as §1

[25] = target: Glc(b1-6)Glc(b1-6)Glc(b1-6)Glc(b1-6)Glc
Method in brief: as §1

[26] = target: Glc(b1-6)Glc(b1-6)Glc(b1-6)Glc(b1-6)Glc(b1-6)Glc
Method in brief: as §1

[27] = target: Glc(b1-6)Glc(b1-6)Glc(b1-6)Glc(b1-6)Glc(b1-6)Glc(b1-6)Glc
Method in brief: as §1

[28] = target: Glc(b1-6)Glc(b1-6)Glc(b1-6)Glc(b1-6)Glc(b1-6)Glc(b1-6)Glc(b1-6)Glc
Method in brief: as §1

[29] = target: Glc(b1-6)Glc(b1-6)Glc(b1-6)Glc(b1-6)Glc(b1-6)Glc(b1-6)Glc(b1-6)Glc(b1-6)Glc
Method in brief: as §1

[30] = target: Glc(b1-6)Glc(b1-6)Glc(b1-6)Glc(b1-6)Glc(b1-6)Glc(b1-6)Glc(b1-6)Glc(b1-6)Glc(b1-6)Glc
Method in brief: as §1

[31] = target: Glc(b1-6)Glc(b1-6)Glc(b1-6)Glc(b1-6)Glc(b1-6)Glc(b1-6)Glc(b1-6)Glc(b1-6)Glc(b1-6)Glc(b1-6)Glc
Method in brief: as §1

[32] = target: Glc(b1-6)Glc(b1-6)Glc(b1-6)Glc(b1-6)Glc(b1-6)Glc(b1-6)Glc(b1-6)Glc(b1-6)Glc(b1-6)Glc(b1-6)Glc(b1-6)Glc(b1-6)Glc(b1-6)Glc(b1-6)Glc
Method in brief: as §1

[33] = target: Man(b1-4)Man(b1-4)Man(b1-4)Man
Method in brief: as §1

[34] = target: Man(b1-4)Man(b1-4)Man(b1-4)Man(b1-4)Man
Method in brief: as §1

[35] = target: Man(b1-4)Man(b1-4)Man(b1-4)Man(b1-4)Man(b1-4)Man
Method in brief: as §1

[36] = target: Xyl(b1-4)Xyl(b1-4)Xyl(b1-4)Xyl(b1-4)Xyl
Method in brief: as §1

[37] = target: Xyl(b1-4)Xyl(b1-4)Xyl(b1-4)Xyl(b1-4)Xyl(b1-4)Xyl
Method in brief: as §1

B1: laminarinase (Bacillus halodurans), Q9KBL8 (protein)
chain: EETIELEGEVIPARLLSTKVKALNYDDYHNVLIDRCVEGGESIRGLGDGSWIAFHDINLEQPTNLLTVRAANENKQAVLEIRADRVDGPLVSQSVIPPTGGLQAWTTVTAQVNGETSEIRDLYLVFKGEFQLSWFSFS
[1]
  glycan array binding signal (z-score): 2.1
[2]
  glycan array binding signal (z-score): 1.45
[3]
  glycan array binding signal (z-score): 1.97
[4]
  glycan array binding signal (z-score): 1.34
[5]
  glycan array binding signal (z-score): 2.85
Glc(b1-3)Glc(b1-4)Glc
  glycan array binding signal (z-score): -0.331
[6]
  glycan array binding signal (z-score): -0.204
[7]
  glycan array binding signal (z-score): 0.425
[8]
  glycan array binding signal (z-score): 1.94
[9]
  glycan array binding signal (z-score): 0.855
Glc(b1-4)Glc
  glycan array binding signal (z-score): -0.583
Glc(b1-4)Glc(b1-3)Glc
  glycan array binding signal (z-score): -0.524
[10]
  glycan array binding signal (z-score): -0.363
Glc(b1-4)Glc(b1-4)Glc
  glycan array binding signal (z-score): -0.573
[11]
  glycan array binding signal (z-score): -0.529
[12]
  glycan array binding signal (z-score): -0.15
[13]
  glycan array binding signal (z-score): -0.528
[14]
  glycan array binding signal (z-score): -0.37
[15]
  glycan array binding signal (z-score): -0.572
[16]
  glycan array binding signal (z-score): -0.642
[17]
  glycan array binding signal (z-score): -0.496
[18]
  glycan array binding signal (z-score): -0.428
[19]
  glycan array binding signal (z-score): 0.181
[20]
  glycan array binding signal (z-score): -0.077
[21]
  glycan array binding signal (z-score): -0.21
[22]
  glycan array binding signal (z-score): -0.396
[23]
  glycan array binding signal (z-score): -0.207
Glc(b1-6)Glc
  glycan array binding signal (z-score): -0.615
Glc(b1-6)Glc(b1-6)Glc
  glycan array binding signal (z-score): -0.537
[24]
  glycan array binding signal (z-score): -0.324
[25]
  glycan array binding signal (z-score): -0.093
[26]
  glycan array binding signal (z-score): -0.163
[27]
  glycan array binding signal (z-score): -0.284
[28]
  glycan array binding signal (z-score): -0.242
[29]
  glycan array binding signal (z-score): -0.157
[30]
  glycan array binding signal (z-score): 0.093
[31]
  glycan array binding signal (z-score): -0.361
[32]
  glycan array binding signal (z-score): 0.097
[33]
  glycan array binding signal (z-score): -0.687
[34]
  glycan array binding signal (z-score): -0.67
[35]
  glycan array binding signal (z-score): -0.682
[36]
  glycan array binding signal (z-score): -0.525
[37]
  glycan array binding signal (z-score): -0.466
